Measured values published in PubChem BioAssay (NCI).
“And” between values parts separate entries of the source, which are not always exact repeats. Equal entries are not always repeated.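 Values below derive from 48-hour exposures of cells grown in 96-well plates, with endpoints linearly interpolated between the two concentrations bracketing the appropriate inhibition level. GI50 is the concentration that inhibits growth by half. TGI marks complete inhibition of growth.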

System: NCI-H322M lung
Test: DTP human tumour cell line panel, 48 h

Compound | TGI | GI50
O=[N+]([O-])c1ccc(S(=O)(=O)Cc2ccccc2)c2nonc12 | > 100 µM | –
COc1ccc(CCNCCCC2c3ccccc3-c3ccccc32)cc1OC | 25.6 µM | –
Cn1cnc([N+](=O)[O-])c1Sc1ncn[nH]1 | > 100 µM | > 100 µM
O=C(N/N=C\C(F)(F)F)c1ccncc1 | > 100 µM | –
C[N+](C)=c1nc(N2CCc3ccccc3C2)ss1 | > 100 µM | –
O=C(Nc1ccn(CCI)c(=O)n1)c1ccccc1 | > 100 µM | –
O=C(CC1C(=O)c2ccccc2C1=C1C(=O)c2ccccc2C1=O)c1ccccc1 (stereo unspecified) | > 100 µM | –
CC(=O)C1=CCC2c3[nH]c4ccccc4c3CCN2C1 (stereo unspecified) | > 100 µM | –
CCc1cc2c(oc3cc(C)ccc32)c(=O)n1C | > 10 µM | –
Nc1ccc([C@H]2C(=O)N[C@H]3CCC[C@H]32)cc1 | > 100 µM | –
CCN(CC)CCO/N=C1/C=C2CCC3C(CC[C@@]4(C)C3CC[C@]4(C)O)[C@@]2(C)CC1 (stereo partly specified) | 36.8 µM | –
O=C(O)CCSC(=O)Nc1ccc(N=Nc2ccccc2)cc1 | > 100 µM | –
Cc1ccccc1-n1c(C)nc(-c2ccccc2)cc1=O | > 100 µM | –
COc1cc(Cl)cc(-c2nn(-c3cccc(NC(=O)Nc4ccc(Cl)c(C(F)(F)F)c4)c3)cc2-c2ccncc2)c1 | 24.9 µM | 3.36 µM
COC(=O)c1ccc(NCc2cc(O)ccc2O)cc1 | 54.3 µM | –
COc1ccccc1CNC(=O)[C@H](Cc1ccc(O)cn1)NC(C)=O | > 100 µM | –
O=c1[nH]c2c(c(=O)[nH]1)SSC2 | 33.5 µM | –
CC1=C(C(=O)OC(C)C)C(c2ccccc2C(F)(F)F)C(C(=O)OC(CO[N+](=O)[O-])CO[N+](=O)[O-])=C(C)N1 (stereo unspecified) | > 100 µM | –
COc1ccc(Nc2cc(C)nc(N3CCN(c4ccnc5cc(Cl)ccc45)CC3)n2)cc1 | > 100 µM | 6.35 µM
COc1ccc(N2C(=O)CC(c3c[nH]c4ncccc34)C2=O)cc1 (stereo unspecified) | > 100 µM | –
Cc1c(Sc2ccccc2)[n+](=O)c2cc(Cl)c(Cl)cc2n1[O-] | > 100 µM | > 100 µM
CCOC(=O)c1c(N2CCCC2)[nH]c(=O)c(C(c2cccs2)c2c(O)c(C(=O)OCC)c(N3CCCC3)[nH]c2=O)c1O | > 100 µM | –
Cc1ccc2c(=O)cc(-c3sc4ccccc4c3C)[nH]c2n1 | > 100 µM | –
CC(CCCOC(c1ccccc1)(c1ccccc1)c1ccccc1)OC(=O)Nc1ccccc1 (stereo unspecified) | 27.7 µM | –
CC(C)CCN[C@@H]1CCc2cc(O)c(N3CC(=O)NS3(=O)=O)c(F)c2C1 | > 100 µM | > 100 µM

Compound | TGI | GI50
CC(C)(C)C1CCC2c3c([nH]c4ccccc34)C3C(=O)N(c4ccc5c(c4)C(=O)c4ccccc4C5=O)C(=O)C3C2C1 (stereo unspecified) | > 100 µM | –
CC1=C(/C=C/C(C)=C/C=C/C(C)=C/CO)C(C)(C)CCC1 | 51.5 µM | –
Cc1ccc(NC(=O)C(=O)Cc2cc[n+]([O-])cc2)cc1 | > 100 µM | –
C=C1[C@@H]([C@@]2(C)C=CC(=O)C(C)(C)[C@@H]2CC(=O)OC)CC[C@@]2(C)C(c3ccoc3)OC(=O)[C@H]3O[C@]132 (stereo partly specified) | > 100 µM | –
COc1ccc2nc(NC(=O)c3cccnc3Nc3cc(OC)c(OC)c(OC)c3)sc2c1 | 39.7 µM | 17.3 µM
c1ccc2c(c1)C1=NCCN1c1ccccc1-2 | 13.4 µM | –
COc1ccc(CCc2nccn2C)cc1OC | > 100 µM | –
CC(C)COC(=O)c1ccc2[nH]c(O)c(C=Nc3ccc(S(N)(=O)=O)cc3)c2c1 | 6.96 µM | 1.69 µM
O=C(O)/C=C/C(=O)N1C/C(=C\c2ccccc2)C(=O)/C(=C/c2ccccc2)C1 | 27.8 µM | –
c1ccc(CNc2nc(Nc3ccccc3)nc3ccccc23)cc1 | 12 µM | 3.32 µM
CO[C@H]1CC(c2ccc[nH]2)=N[C@]12O[C@@H](C)C[C@@H]1CCCCCCCc3ccc([nH]3)[C@H]12 | > 33.3 µM | 1.65 µM
COC(=O)c1c(-c2ccccc2)c2sc3ccccc3n2c1N | > 100 µM | –
CCOC(=O)c1c(C)c(C)n2c1NC(=O)C2 | > 100 µM | –
CCN(CC)CCOc1ccc(C(=O)/C=C\c2ccc(Cl)cc2Cl)cc1 | 27.8 µM | 13.7 µM
COc1cc(/C=C/C(=O)c2cccnc2Nc2ccc(F)cc2)cc(OC)c1OC | > 100 µM | 4.83 µM
OCCN1CCN(CC/C=C2\c3ccccc3Sc3ccc(Cl)cc32)CC1 | 25.8 µM and 19.2 µM | 10.3 µM and 6.46 µM
Cc1cccc2c(N)c3ccccc3nc12 | 6.86 µM | 1.53 µM
Cc1ccccc1N=NC(C(=O)c1ccccc1)C(=O)c1ccccc1 | > 100 µM | –
Clc1nc(Cl)c2ncn(Cc3ccc(Cn4cnc5c(Cl)nc(Cl)nc54)cc3)c2n1 | 83.6 µM | 24.9 µM
CCC(=O)N/N=C(\C=C\c1cccc(O)c1)c1sc(Nc2ccc(C)cc2[N+](=O)[O-])nc1C | > 100 µM | –
COCCOC(=O)C(C)=[N+]=[N-] | > 100 µM | –
CCN(CC)CCSCCCNc1c2ccc(Cl)cc2nc2ccc(OC)cc12 | 2.48 µM | 0.496 µM
CCOC(=O)/C(C#N)=C/c1ccc2c(c1)CC1(C2)Cc2cc(CC)c(C(C)O)cc2C1 (stereo unspecified) | > 81.7 µM | –
CCC1CN2CCC3(c4ccccc4)CC(C(=O)OC)=CC1C23 (stereo unspecified) | 30.4 µM | –
O=C1OC(c2ccccc2)=N/C1=C\c1cccc(F)c1 | > 100 µM | –

Compound | TGI | GI50
COC1=C2CC(C)CC(OC)C(O)C(C)/C=C(\C)C(OC(N)=O)C(OC)/C=C\C=C(/C)C(=O)NC(=C(/C=N/N3CCCCC3)C1=O)C2=O (stereo unspecified) | 89.6 µM | –
Cc1nc(Nc2nc3ccccc3o2)nc(-c2cccc([N+](=O)[O-])c2)c1C(=O)Nc1ccc(F)c(Cl)c1 | 8.46 µM | 2.36 µM
N#Cc1nc(COCCOCc2ccc(F)cc2)oc1N | > 100 µM | –
CC(=O)c1cc(C)n2c1CS[C@@H]2c1ccccc1 | > 100 µM | –
Cc1ccc(S(=O)(=O)c2c(N)n(CCN(C)C)c3nc4ccccc4nc23)cc1 | > 100 µM | –
CCCCCCC(/C=N/O)C(C)(O)CCC (stereo unspecified) | > 100 µM | –
CNC(=O)OCC1C2=C(C(=O)C(C)=C(N)C2=O)N2CC3C(N3C)C12OC (stereo unspecified) | 53.7 µM | –
O=C1NCCS(=O)(=O)/C1=C\C=C\c1cccc(C(F)(F)F)c1 | 12.7 µM | 2.91 µM
CN1C(Cl)=NS(=O)(=O)c2ccccc21 | > 100 µM | –
N#CC1=C(Cl)NC(Cl)=C(C#N)C1c1c(Cl)cccc1Cl | > 100 µM | –
O=c1[nH]n(Cc2ccccc2Cl)c2ccccc12 | > 100 µM | –
COc1ccc(OC)c(Nc2nc(-c3c(C)nc4sccn34)cs2)c1 | > 100 µM | > 100 µM
COc1cc2c3c(n(CCCN=[N+]=[N-])c(=O)c2cc1OC)-c1ccc(N(C)C)cc1C3=O | > 100 µM | > 100 µM
O=C(O)C1=C(C(=O)Nc2ccc(NC(=O)C3=C(C(=O)O)C4C=CC3C4)cc2)C2C=CC1C2 | > 100 µM | –
C[C@]12CC[C@H](O)CC1=CC[C@@H]1C2CC[C@]2(C)Nc3c(cnn3-c3ccc(F)cc3)CC12 (stereo partly specified) | > 86 µM | –
c1ccc(CC2(c3cc4ccccc4[nH]3)OCCO2)nc1 | > 100 µM | –
COc1ccc(C2=CC(c3ccc(OC)c(OC)c3)c3c(c4ccccc4oc3=O)O2)cc1OC (stereo unspecified) | > 100 µM | 4.82 µM
COc1ccc(C(=O)Nc2ccc3oc(-c4ccccc4)nc3c2)cc1 | > 100 µM | –
Nc1nc(N)c2nc(CNc3ccc(C(=O)NC(CCCCNC(=O)c4ccccc4C(=O)O)C(=O)O)cc3)cnc2n1 (stereo unspecified) | > 100 µM | –
CCOP(=O)(OCC)/C(C#N)=C/c1ccnc2ccccc12 | > 100 µM | –
O=C(/C=C(\O)c1ccccc1)c1cc(-c2ccccc2)n(-c2ccccc2)n1 | 95.9 µM | –
COC(=O)[C@@H](C)C[C@H](Cc1ccccc1)NC(=O)c1csc([C@@H](C[C@H](C(C)C)N(C)C(=O)[C@H](C)NC(=O)[C@H]2CCCCN2C)OC(C)=O)n1 | > 25 µM | 15.8 µM
COc1cc2oc(=O)ccc2cc1CC=C(C)C | > 100 µM | –
Cc1cccc(Nc2cnc(N)nc2N)c1 | > 100 µM | –
CC(C)c1cc(OCC(O)CO)cc(C(C)C)c1 (stereo unspecified) | > 100 µM | –

Compound | TGI | GI50
Cc1cc2c(cc1N)C(C)C1(CCC(=O)N2Cc2ccccc2)OCCO1 (stereo unspecified) | > 100 µM | –
CC[C@@H]1/C=C/C=C/C[C@H](C)[C@@H](O)[C@](C)(O)C(=O)[C@H](C)[C@@H](O)[C@H](C)C(=O)[C@H](C)[C@@H](O)[C@H](C)/C=C/C(=O)O[C@H]2[C@@H](C)[C@@H](CC1)O[C@@]1(CC[C@@H](C)[C@@H](CC(C)O)O1)[C@@H]2C (stereo partly specified) | 12.9 µM | –
CC(=O)Oc1ccc(C(c2ccc(OC(C)=O)cc2)c2ccccn2)cc1 | > 71.7 µM | 0.381 µM
C=CCn1c(-c2ccc(-c3cs/c(=N\N=O)n3CC=C)cc2)cs/c1=N\N=O | > 100 µM | –
O=C1c2nc3n(c2C(=O)c2c1nc1n2CCC1)CCC3 | 14.6 µM | –
CCOC(=O)C(=O)C(CCC(=O)c1ccc2ccccc2c1O)C(=O)OCC (stereo unspecified) | > 100 µM | –
Cc1ncc([N+](=O)[O-])n1CCNC(=O)Cn1c([N+](=O)[O-])cnc1C | > 100 µM | –
O=[N+]([O-])c1cccc(C2=NOC3C4CCC(C4)C23)c1 (stereo unspecified) | > 100 µM | –
CC(C)(C)OC(=O)N(CCCCNCc1ccc2ccccc2c1)CCCNCc1ccc2ccccc2c1 | 3.04 µM | –
O=C1CC(c2ccc(Cl)cc2)Oc2ccccc21 (stereo unspecified) | > 100 µM | –
O=C(CC1C(=O)Nc2ccccc2S1=O)Nc1ccc(Cl)cc1 (stereo unspecified) | > 100 µM | –
c1ccc2cc3c(cc2c1)nc1ccccn13 | > 100 µM | –
O=C1c2ccccc2C(=O)c2oc(Br)cc21 | 3.03 µM | –
O=c1ccn(C2OC(CN(O)CCC3C(CO)OC(n4ccc(=O)[nH]c4=O)C3O)C(O)C2O)c(=O)[nH]1 (stereo unspecified) | > 100 µM | –
COc1ccc2c(c1OC)C(=O)c1cnccc1C2=O | > 100 µM | –
O=S(=O)(C/C(=N\O)c1ccccc1)c1ccccc1 | > 100 µM | –
COc1cc(C2C(Cl)C(=O)N2NC(=O)c2ccc(NC(C)=O)cc2OC)ccc1O (stereo unspecified) | 16.7 µM | –
CC1=NN(C(=O)CC(=O)Nc2cccc(Cl)c2)C(=O)C1N=Nc1ccc(C(=O)O)cc1 (stereo unspecified) | > 100 µM | –
O=C(NNC(=O)c1ccccc1O)c1ccc(O)cc1 | > 100 µM | –
CCOC(OC1=C(C#N)CCCC1)C(C)[Se]c1ccccc1 (stereo unspecified) | > 100 µM | –
NCc1cc(O)c(O)c(O)c1 | > 100 µM | –
Cc1ccc(S(=O)(=O)NCCCSCCSCCCN)cc1 | > 100 µM | –
CC(C)C(NCc1c(O)ccc2c(-c3ccccc3)cc(=O)oc12)C(=O)O (stereo unspecified) | > 100 µM | –
S=C1N=C(Cl)/C(=C\c2ccccc2)N1 | > 100 µM | –
